Laboratory results published in PubChem BioAssay AID1240 (Sanford-Burnham Center for Chemical Genomics, 2008).
In all, about 50,000 compounds went through this assay and about 800 (1.6%) showed an effect of 50% or more. This is one part of the list.

Target: Bcl-2-like protein 10 (Homo sapiens) (UniProt Q9HD36)
Experiment: TR3 peptide-Bcl-B binding displacers, biochemical primary FP assay, phenotype converters (AID 1240);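 further: 0% = Bcl-B with tracer peptide and DMSO and 100% = tracer peptide lacking Bcl-B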
Settings: GST-Bcl-B / FITC-TR3 peptide fluorescence polarization; stronger effect = higher value; compound at 3.75 mg/L

Chain of UniProt Q9HD36 (Q9HD36 whole entry, looked up): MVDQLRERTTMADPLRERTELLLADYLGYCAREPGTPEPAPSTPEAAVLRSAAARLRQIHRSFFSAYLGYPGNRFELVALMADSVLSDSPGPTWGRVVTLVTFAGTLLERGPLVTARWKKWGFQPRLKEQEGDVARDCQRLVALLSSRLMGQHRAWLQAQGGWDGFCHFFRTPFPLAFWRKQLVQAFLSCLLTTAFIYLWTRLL

Compound	displacement
CCc1ccc(/C=N\NC(=O)C2CC(=O)N(c3ccc(OC)cc3)C2)cc1 (stereo not given)	2.1%
CC(C)(C)NC(=O)Nc1ccc2nccnc2c1	14%
CN(C)c1ccc(C2/C(=C(\O)c3ccccc3)C(=O)C(=O)N2CCCC(=O)O)cc1 (stereo not given)	3%
O=C1OC(Oc2ccccc2)(c2ccccc2)c2ccccc21 (stereo not given)	23%
Cc1cc(Cl)ccc1NS(=O)(=O)c1ccc([N+](=O)[O-])cc1	5.2%
CCOC(=O)C1=C(O)/C(=C/c2ccc(-c3ccccc3)cc2)SC1=Nc1ccc(OC)cc1	-6%
O=C(COc1ccccc1Cl)NNC(=O)c1ccc(O)cc1O	-22.6%
Cn1ccnc1SCC(=O)Nc1cccc(C(F)(F)F)c1	14.7%
O=C(COc1ccccc1[N+](=O)[O-])Nc1cc(Cl)cc(Cl)c1	11.1%
COc1cc2ccccc2cc1C(=O)Nc1ccc(Cl)c(Cl)c1	-6%
COc1ccc(OC)c(S(=O)(=O)NCc2ccco2)c1	13.4%
CC(C)(C)C(=O)NC(=S)N1CCOCC1	-4.7%
COc1ccc(C(=O)/C=C/c2cccc(Cl)c2Cl)cc1	2.1%
O=C1OCC(CO)(CO)N=C1NNc1ccc([N+](=O)[O-])cc1	7.3%
CC(C(=O)Nc1ccc(I)cc1)N1C(=O)c2ccccc2C1=O (stereo not given)	-5.5%
COc1ccc(C(=O)Nc2ccc3oc(-c4ccc(OC)c(Cl)c4)nc3c2)cc1Cl	49.2%
COc1ccc(C2/C(=C(/O)c3ccccc3)C(=O)C(=O)N2CC2CCCO2)cc1OC (stereo not given)	-4.9%
O=[N+]([O-])c1cc(Cl)cc2c1[nH]c1ccc(Cl)cc12	7.1%
COc1ccc(Br)cc1CN1CCN(C2CC3CCC2C3)CC1 (stereo not given)	-18.2%
CCOCCOC(=O)c1ccc(NC(=O)c2ccc([N+](=O)[O-])cc2Cl)cc1	-6.5%
COc1cc(C=C2C(=O)NC(=S)NC2=O)cc(Br)c1OCCOc1ccc(C)c(C)c1	8.1%
COc1ccc(C(=O)N2CC3(CCCC3)c3ccccc3C2C)cc1OC (stereo not given)	-21.3%

Compound	displacement
CCC(=O)N1c2ccccc2NC2=C(C(=O)CC(c3ccco3)C2)C1c1ccc(N(CC)CC)cc1 (stereo not given)	-5.8%
O=C(Cn1c(NCCO)nc2ccccc21)c1ccc(Cl)c(Cl)c1	-5.9%
COCCOC(=O)c1c(C)oc2ccc(OCc3c(F)c(F)c(F)c(F)c3F)cc12	10.8%
O=C(CCN1C(=O)c2ccccc2C1=O)NC1CCCCCC1	8.5%
Cc1ccccc1NC(=O)c1c(C)[nH]c(=S)c(C#N)c1-c1cccc(F)c1	-11.1%
COc1cccc(C2NC(=O)NC(C)=C2C(=O)OCCOc2ccccc2)c1OC (stereo not given)	-3.7%
Cc1ccc(-c2nc3cc(Cl)ccc3o2)cc1NC(=O)c1ccc(-c2ccc([N+](=O)[O-])cc2)o1	0.9%
COc1cc(C2OCC3(CCC4(COC(c5ccc(O)c(OC)c5)OC4)C3=O)CO2)ccc1O (stereo not given)	11.1%
CC1SC(c2c(Cl)cccc2Cl)N(CCCN(C)C)C1=O (stereo not given)	2.3%
O=S(=O)(/N=C/c1ccc(Br)cc1)c1cccs1	-4.5%
Cc1ccc(C(=O)Nc2ccccc2Oc2ccccc2)o1	13.2%
Cc1ccc(C(=O)N/C(=C\c2ccccc2)C(=O)NCc2ccncc2)cc1	5.9%
COc1ccccc1C(=O)N1CCN(c2nc3ccc([N+](=O)[O-])cc3s2)CC1	-14%
Cc1cccc(OCC(=O)Nc2ccccc2Cl)c1C	-1.5%
O=C1NC(=O)/C(=C\c2ccc(OCc3ccc(F)cc3)cc2)N1	-34.4%
CCOC(=O)C1=NN(C(=O)c2ccc([N+](=O)[O-])cc2)C(O)(C(C)(C)C)C1 (stereo not given)	-7.9%
C=CCNC(=O)/C(=C\C=C\C)NC(=O)c1ccccc1	11.1%
CS(=O)(=O)N(Cc1ccccc1)c1ccc(C(=O)NCc2ccc(Cl)cc2)cc1	-5%
COc1ccc(S(=O)(=O)NC2CCSC2=O)cc1 (stereo not given)	-11.6%
CCN(CC)c1ccc(C(=O)Nc2cccc(C)c2C)cc1	8%
CC1(C)C(c2ccccc2)=NC(c2ccccc2F)=[N+]1[O-]	-2.8%
O=C(c1cccn1C(O)(C(F)(F)F)C(F)(F)F)C(F)(F)F	3.8%

Compound	displacement
Cc1ccc(C(C)C)c(OCCOc2ccccc2/C=C2/SC(=S)N(C)C2=O)c1	0.1%
O=C1NC(=S)N/C1=C/c1ccc(OCc2cccc(C(=O)O)c2)cc1	11.7%
O=C(CSc1nnnn1-c1ccccc1)Nc1ccccc1O	-4%
COc1ccc(NC2CC(=O)N(CCc3ccccc3)C2=O)cc1 (stereo not given)	15.1%
O=C(Nc1cccc(-c2csc(-c3ccccc3)n2)c1)c1cc2ccccc2oc1=O	11.6%
COc1cccc(OC)c1C(=O)NNC(=O)c1cccc(C)c1	-1.3%
Cc1cc(C(=O)N/N=C/c2c(F)cccc2Cl)n[nH]1	0.4%
CCc1ccc(C2Nc3cccc4cccc(c34)N2)cc1	30.8%
CC(C)N1CCC(=NNC(=O)COc2ccc(Cl)cc2Cl)CC1	-7.8%
COC(=O)c1ccc(C(=O)OC)c(NC(=O)Nc2ccc(Cl)c(Cl)c2)c1	1.7%
COC(=O)c1c(N=CN(C)C)c(C#N)c2n1CCCCC2	0.3%
CN(C(=O)c1cccs1)c1ccccc1	-16.1%
CCOC(=O)c1c(C)[nH]c(/C=C(/C#N)C(N)=NCc2ccccc2)c1O	4.3%
Fc1cnc(N2CCOCC2)nc1N1CCOCC1	-5.7%
Cc1ccc(S(=O)(=O)N(CC(O)CN2CCCCC2)c2cccc3ccccc23)cc1 (stereo not given)	-3.3%
COc1ccc(OC)c(/C=N/N=C2\NC(=O)C(C)S2)c1 (stereo not given)	-13.9%
CSc1ccc(S(=O)(=O)N(CC(=O)Nc2c(C)cccc2C)c2ccc(C)cc2)cc1	7.9%
Cc1coc2cc3oc(=O)cc(C)c3cc12	-2%
Cc1nc(SCC(=O)C2CC2)c(C#N)c(C)c1C	-1.6%
C=CCN(c1ccccc1C(=O)O)S(=O)(=O)c1ccc(C)cc1	1%
O=C(Cc1ccccc1)NC(=S)N1CCCc2ccccc21	19.7%
COC(=O)c1c(C)oc2cc(Br)c(OC)cc12	12.7%

Compound	displacement
O=C(NCCc1cccc(Cl)c1)c1cccnc1	14.8%
O=C(/C=C/Nc1ccccc1C(F)(F)F)c1ccc(Br)cc1	-3.8%
O=C(NCc1ccccn1)Nc1ccc(Cl)cc1	11.4%
CCCCCSc1nnc2c(n1)[nH]c1ccc(C)cc12	1.8%
Cc1cc(C)cc(NC2=C(Cl)C(=O)N(c3ccc(Br)cc3)C2=O)c1	9%
O=C(Nc1cccnc1)c1cccc([N+](=O)[O-])c1	-4.6%
COc1ccc(CCNC2CC(=O)N(c3ccc(OC)cc3)C2=O)cc1 (stereo not given)	6.4%
CCOc1ccc(N=Cc2cc(Cl)ccc2OC)cc1	3%
C=C(CC(Cc1ccccc1)C(=O)O)c1ccccc1 (stereo not given)	-7.4%
CCOP(=O)(OCC)C(C)(CC)NC(=S)Nc1c(C)cc(C)cc1C (stereo not given)	13.5%
Cc1ccc(/C=C/C(=O)NC2CCS(=O)(=O)C2)cc1 (stereo not given)	-4.5%
C/C(=C/C(=O)NCc1ccccc1)C(=O)O	4.2%
CCc1cccc(CC)c1NC(=O)c1ccc(-c2ccccc2)cc1	-4.5%
C=CCOc1ccc(/C=C2\C(=O)N(CCCOC)C(C)=C2C(=O)OC)cc1OC	-4.2%
CCOc1ccc(-c2cc(C)n3nc(C(=O)Nc4cc(OC)c(Cl)cc4OC)cc3n2)cc1	-1.3%
C=CCn1cnnc1C(CCC(C)C)CC(C)(C)O (stereo not given)	0.3%
Cc1cc(C)nc(/N=C(/N)Nc2ccccc2[N+](=O)[O-])n1	-9.6%
COc1ccc(NC(=O)COc2ccc(Br)c(C)c2)cc1Cl	-7.9%
Cc1ccc(OCCOCCOc2ccc(Br)cc2/C=N\NC(=O)c2ccncc2)cc1	-17.9%
CCOC(=O)c1ccc(NC(=O)CCN2C(=O)S/C(=C/c3ccc(OC)c(OC)c3)C2=O)cc1	34.5%
COc1ccc(C(=O)Oc2ccc3c(c2)C(C)=CC(C)(C)N3)cc1	-7.9%
CCCOc1ccc(-c2cc(C(=O)NCC3CCCO3)c3ccccc3n2)cc1 (stereo not given)	9.2%

Compound	displacement
O=C(c1cnn2c1NC(c1ccco1)CC2C(F)(F)F)N1CCN(Cc2ccccc2)CC1 (stereo not given)	-3.4%
C=CCN1C(=O)C(Cc2ccc(C)cc2)S/C1=N\N=C\c1ccco1 (stereo not given)	-13.1%
Cc1ccc(C)c(NC(=O)c2ccc(C)c([N+](=O)[O-])c2)c1	10.9%
COc1ccc(C2CC(c3cccs3)=NN2c2ccc(F)cc2)cc1OC (stereo not given)	9.8%
Oc1oc(-c2ccccc2)nc1C=Nc1ccc(I)cc1	2.6%
CCc1ccc(NC(CC(=O)c2ccc(OC)cc2)c2ccc(OC)cc2)cc1 (stereo not given)	-20.1%
COc1cc(C2C3=C(CC(C)(C)CC3=O)OC3=C2C(=O)CC(C)(C)C3)ccc1OCc1cc2c(cc1Cl)OCO2	0.5%
Cc1cccc(OCCn2ccnc2)c1C	5.3%
O=C(OCc1ccccc1)Sc1nc2ccccc2[nH]1	9%
CCc1c(C)nc2cc(-c3ccc(Cl)cc3)[nH]n2c1=O	5.6%
COc1ccc(CNC(=O)CSc2nc3ccccc3s2)cc1	11.2%
NC1=NC(=O)/C(=C/c2cc(Br)ccc2OS(=O)(=O)c2ccc([N+](=O)[O-])cc2)S1	12.7%
COc1ccc(C(=O)n2cnc3cc(C)c(C)cc32)cc1[N+](=O)[O-]	15.4%
O=C(O)C(Cc1ccccc1)N1C(=O)/C(=C/c2cccc([N+](=O)[O-])c2)SC1=S (stereo not given)	8.1%
C=CCOC(=O)C1=C(C)NC2=C(C(=O)CC(C)(C)C2)C1c1ccccc1Cl (stereo not given)	4.7%
O=C(O)CN1C(=O)/C(=C/c2ccccc2OCc2ccc([N+](=O)[O-])cc2)SC1=S	15.4%
CC1CCCC(C)N1C(=O)c1ccc(F)cc1F (stereo not given)	-1.8%
CC(=O)C1=C(C)NC2=C(C(=O)CC(C)(C)C2)C1c1cccc([N+](=O)[O-])c1 (stereo not given)	13.5%
COc1ccc2c(OC)c3ccoc3nc2c1OC	-1.5%
COc1cc(C(=O)Nc2ccccc2Br)cc(OC)c1OC	-5.4%
Cn1c(=O)c2c(ncn2CC(=O)Nc2cccc3ccccc23)n(C)c1=O	32.4%
CC(C)(C)c1ccc(C(CC(=O)c2ccc(Br)cc2)S(=O)(=O)c2ccccc2)cc1 (stereo not given)	12.1%
